# Assay results taken from PubChem BioAssay AID588855 (National Center for Advancing Translational Sciences (NCATS), 2011).
# Screen size: about 410,000 compounds; about 5,000 (1.2%) were called active. Inconclusive means that the source gave no clear call. Such entries were picked first, then a sample of the others. Calls come from the whole dose curve; as a rule, active = well fitted inhibition curve with a large enough effect; inconclusive = small, poorly fitted or top-dose-only effect; inactive = no such curve, though single readings can be large or run the other way. Potencies beside an inconclusive call are fits to weak or partial responses and may not hold up.
# Experiment: qHTS for Inhibitors of TGF-b; note: nearly all actives have a fitted effect of over 65% in size
# Conditions: HepG2 CAGA-GFP TGF-b/SMAD3 reporter, GFP fluorescence, 18 h, TGF-beta stimulated, 500 pg/mL final; series mostly up to 46.1 µM; activity, negative = inhibition: at the top concentration
# Procedure, shortened: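 HEPG2 CAGA-GFP reporter cells (1000/well, DMEM with 1% FBS) received compounds, then recombinant TGF-beta at 500 pg/mL final for 18 hours at 37 degrees C. Per-cell GFP summed per well was normalised to unstimulated and stimulated DMSO controls before curve fitting.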
# % is set by controls: 0 for no effect and ±100 for the full control effect; potency is the fitted concentration of half-maximal effect; tags give direction and shape of the fitted curve.
SMILES,Potency,"activity, negative = inhibition"
CCCCOc1ccc(C2c3c(-c4ccccc4O)n[nH]c3C(=O)N2Cc2ccncc2)cc1OC (stereo not drawn),"inconclusive: 35.5 µM [inhibitor, single point]",
CCCSCCCNC(=O)C1CCN(C(=O)c2cc3sccc3n2C)CC1,"inconclusive: 35.5 µM [inhibitor, single point]",
Cc1noc(C)c1C(=O)Nc1sc(C)c(-c2ccccc2)c1C#N,"inconclusive: 3.16 µM [inhibitor, single point]",
Cc1ccccc1Cn1c(CCCNC(=O)C2CCCCC2)nc2ccccc21,"inconclusive: 22.4 µM [inhibitor, single point]",
Cc1ccccc1Cn1c(SCc2ccc(C(=O)NCc3cccs3)cc2)nc2ccncc21,"inconclusive: 8.91 µM [inhibitor, partial curve, poor fit]",
O=C(NC1=CC(=O)c2ccccc2C1=O)c1ccccc1,active: 10 µM,
CNc1nc(SCc2ccccc2Cl)nc2c1CCCC2,"inconclusive: 11.2 µM [inhibitor, partial curve, poor fit]",
CC(=O)N1c2ccc(S(=O)(=O)N(C)C3CCCCC3)cc2CC1C (stereo not drawn),,inactive: -5.83%
Cc1cccc(OCc2nnc(SCC(=O)Nc3ccc(C)cc3C)o2)c1,,inactive: 10.4%
Cc1ccc(-n2cnc3cc(NCc4cccs4)ccc32)cc1,"inconclusive: 22.4 µM [inhibitor, single point]",
Cc1ccc(C)c(Nc2cc(C)nc3ccccc23)c1,"inconclusive: 35.5 µM [inhibitor, single point]",
COc1ccc(Br)cc1/C=N/N1CCN(Cc2ccccc2)CC1,,inactive: 0.493%
COc1ccc(NC(=O)Cn2c(=O)oc3cc(S(=O)(=O)NC(C)C)ccc32)cc1OC,,inactive: 0%
Cc1nn(-c2ccccc2)c(Cl)c1/C=N/NC(=O)c1ccnn1C,,inactive: -4.61%
COc1ccc2c(c1)c1ncn(Cc3ccccn3)c(=O)c1n2C,"inconclusive: 35.5 µM [inhibitor, single point]",
C[C@@H]1CN([C@@H](C)CO)C(=O)c2cc(NS(C)(=O)=O)ccc2O[C@H]1CN(C)Cc1ccc(Oc2ccccc2)cc1,"inconclusive: 35.5 µM [inhibitor, single point]",
OCCCNc1c2ccccc2nc2ccccc12,active: 4.47 µM,
CCn1c(-c2cccnc2Cl)nc2ccccc21,"inconclusive: 5.62 µM [inhibitor, single point]",
COc1ccc(C2C3=C(CC(C)(C)CC3=O)Oc3ncn(Cc4ccco4)c(=N)c32)cc1 (stereo not drawn),,inactive: -10.7%
O=C(NC(c1ccccc1)c1cnccn1)C1CCN(CCOc2ccc(Cl)cc2Cl)CC1 (stereo not drawn),"inconclusive: 35.5 µM [inhibitor, single point]",
Cc1cc(Cl)ccc1NC(=O)c1ccc2c(c1)OCO2,,inactive: 0.59%
CC(C)[C@H](NC(=O)N1CCn2c1nc1ccccc12)C(=O)NCCc1ccccc1,"inconclusive: 35.5 µM [inhibitor, single point]",
O=C(NNS(=O)(=O)c1ccc(F)cc1)c1cc2ccccc2cc1O,"inconclusive: 35.5 µM [inhibitor, single point]",

SMILES,Potency,"activity, negative = inhibition"
COc1cc(/C=N/OCC(=O)Nc2ccc(OC(F)F)cc2)ccc1OCc1ccccc1,"inconclusive: 15.8 µM [inhibitor, single point]",
CCN(C(=O)CSc1ncccn1)c1c(N)n(Cc2ccccc2)c(=O)[nH]c1=O,,inactive: -10.3%
Cc1ccc(NC(=O)CSc2nc3ccc(NC(=O)c4cccs4)cc3s2)c(C)c1,,inactive: -13.6%
CNC(=O)COC(=O)c1[nH]c(C)c(C(C)=O)c1C,,inactive: -15.6%
N#Cc1c(N)c(C(=O)c2ccccc2)n2c1CCCC2,"inconclusive: 3.98 µM [inhibitor, single point]",
Cc1ccc(S(=O)(=O)NC2c3cccc4cccc(c34)C2Sc2ncccn2)cc1 (stereo not drawn),"inconclusive: 35.5 µM [inhibitor, single point]",
CCOC(=O)C1=C[C@@H](C(C)(C)C)N(S(=O)(=O)c2ccc([N+](=O)[O-])cc2)[C@H]1c1ccccc1,"inconclusive: 15.8 µM [inhibitor, partial curve]",
CC1CCC(C(C)C)C(OC(=O)C[n+]2cc(-c3ccc(Cl)cc3)n3c2CCCCC3)C1 (stereo not drawn),"inconclusive: 22.4 µM [inhibitor, single point]",
CCN(CC)c1ccc(C=C(c2nnnn2-c2ccccc2)c2nnnn2-c2ccccc2)cc1,,inactive: 13.9%
Cc1ccc(C2=NC(C(F)(F)F)(C(F)(F)F)c3c(n(-c4ccc(F)cc4)c(=O)[nH]c3=O)N2)cc1,"inconclusive: 10 µM [inhibitor, partial curve, poor fit]",
Cc1ccc(-c2[nH]c3ccccc3c2SCCN)cc1,"inconclusive: 8.91 µM [inhibitor, partial curve]",
CCn1c(CNC(=O)c2ccc(OC)cc2)nnc1SCC(=O)Nc1cccc(C)c1C,"inconclusive: 35.5 µM [inhibitor, single point]",
Brc1ccc(/C=N/Nc2ccccn2)cc1,"inconclusive: 35.5 µM [inhibitor, single point]",
Cc1ccc(NC(=O)c2ccc3nc(N4CCOCC4)sc3c2)c(Cl)c1,,inactive: 7.61%
COc1ccccc1CNC(=O)C(=O)NCC1OCCN1S(=O)(=O)c1ccccc1 (stereo not drawn),"inconclusive: 35.5 µM [inhibitor, partial curve, poor fit]",
O=C(c1ccccc1C(F)(F)F)N1CCN(S(=O)(=O)c2ccccc2)CC1,"inconclusive: 1.26 µM [inhibitor, full curve, poor fit]",
CCCCC#Cc1ccccc1CC(=O)Nc1ccccc1,"inconclusive: 8.91 µM [inhibitor, partial curve, poor fit]",
C#CCOc1ccc(/C=N/NC(=O)c2cccnc2)cc1OCC,,inactive: -1.78%
Cc1cc(Oc2cccc3c2S(=O)(=O)N(C2CCCC2)CC(COCc2ccccc2)O3)cc(C)c1C (stereo not drawn),,inactive: -6.33%
CC(=O)c1cc2c(s1)-c1cc(F)ccc1OC2,active: 7.08 µM,
COc1cc(C2c3cc4c(cc3OC(NNC(N)=S)C2C)OCO4)cc(OC)c1OC (stereo not drawn),"inconclusive: 1.41 µM [inhibitor, full curve]",
CC1CN(c2ncnc3c2cnn3-c2ccc(Cl)cc2)CC(C)O1 (stereo not drawn),"inconclusive: 3.55 µM [inhibitor, partial curve]",
COc1ccc(-c2csc(CCN3N=C(C)CC3=O)n2)cc1,"inconclusive: 35.5 µM [inhibitor, single point]",

SMILES,Potency,"activity, negative = inhibition"
CN(CCOc1ccc(Cl)cc1)C(=O)c1cc(S(=O)(=O)N2CCOCC2)ccc1N1CCCC1,"inconclusive: 12.6 µM [inhibitor, partial curve]",
O=C(N/C(=C\c1cccnc1)C(=O)N1CCOCC1)c1cccc(Br)c1,"inconclusive: 6.31 µM [inhibitor, single point]",
CCc1ccc(CNC(=O)CCc2c(C)nn(-c3ccc(N4CCCCC4)nn3)c2C)cc1,"inconclusive: 0.447 µM [inhibitor, full curve, poor fit]",
Cc1cccn2cc(-c3cccc(NS(=O)(=O)c4ccc(Cl)c(Cl)c4)c3)nc12,"inconclusive: 25.1 µM [inhibitor, single point]",
N#CC1=C(S)N(c2ccccc2)C(c2cccs2)NC1=O (stereo not drawn),"inconclusive: 10 µM [inhibitor, partial curve]",
CC(C)CC(C(=O)O)N1C(=O)C2C3CC(C2C1=O)C1C(c2ccccc2)c2sc(=O)[nH]c2SC31 (stereo not drawn),"inconclusive: 0.708 µM [inhibitor, partial curve, poor fit]",
CC1CCCN(C(=O)c2ccc(Cl)c(S(=O)(=O)N3CCCCCC3)c2)C1 (stereo not drawn),"inconclusive: 35.5 µM [inhibitor, single point]",
CC(C)(C)c1ccc(C(O)CCCN2CCC(C(O)(c3ccccc3)c3ccccc3)CC2)cc1 (stereo not drawn),,inactive: -1.34%
CC(CNC(=O)Cn1ccc2cc(S(=O)(=O)N3CCCCC3)ccc21)c1ccccc1 (stereo not drawn),"inconclusive: 5.01 µM [inhibitor, partial curve]",
COc1ccc(C2c3cccn3CCN2S(=O)(=O)c2ccccc2[N+](=O)[O-])cc1OC (stereo not drawn),"inconclusive: 35.5 µM [inhibitor, single point]",
c1cnc(N2CCN(c3nc4ccccc4n4cnnc34)CC2)nc1,,inactive: 2.46%
Cc1ccc(C2CCN(C(=S)Nc3cccc(Cl)c3)C2)cc1 (stereo not drawn),"inconclusive: 25.1 µM [inhibitor, single point]",
C/C(=N/NC(=O)c1nnn(-c2nonc2N)c1COc1ccccc1)c1ccccc1Cl,"inconclusive: 25.1 µM [inhibitor, single point]",
COc1ccccc1NC(=O)CSc1ccc(-c2sc(C)nc2C)nn1,,inactive: 0%
COc1ccccc1CNC(=O)Cn1c(=O)oc2cc(S(=O)(=O)N3CCC(C)CC3)ccc21,"inconclusive: 17.8 µM [inhibitor, single point]",
COc1cccc(CNCCSc2nnnn2C)c1OCc1ccc(Cl)cc1Cl,"inconclusive: 14.1 µM [inhibitor, partial curve]",
NC(=O)c1ccc(NC(=O)CSc2nnc(-c3ccncc3)n2Cc2ccco2)cc1,,inactive: 1.54%
CC1(C)CC(=O)C/C(=N\NC(=O)Cc2ccccc2)C1,,inactive: 11.1%
O=C(CCl)N(CCc1ccccc1)CCc1ccccc1,"inconclusive: 35.5 µM [inhibitor, single point]",
COc1cc(/C=C2\SC(=O)N(c3ccc(Cl)cc3)C2=O)cc([N+](=O)[O-])c1O,,inactive: 1.73%
COC(=O)c1ccc(N2CCN(S(=O)(=O)c3c(C)cc(C)cc3C)CC2)c([N+](=O)[O-])c1,,inactive: -8.94%
CSCC(=O)N1CCCC(C(=O)c2cc(F)ccc2F)C1 (stereo not drawn),"inconclusive: 35.5 µM [inhibitor, single point]",
